Data: PubChem BioAssay AID886 (National Center for Advancing Translational Sciences (NCATS), 2007)
Hit rate of the full screen: of about 73,000 compounds, about 2,500 (3.4%) were called active. This list was built around the results that the source calls inconclusive (neither active nor inactive); the mix of calls is not that of the screen. Calls follow the shape of the dose curve; as a rule, active = well fitted inhibition curve with a large enough effect; inconclusive = small, poorly fitted or top-dose-only effect; inactive = no such curve, though single readings can be large or run the other way. Potencies of inconclusive entries are doubtful fits and often do not repeat.

Each molecule was assayed against 3-hydroxyacyl-CoA dehydrogenase type-2 (Homo sapiens) (UniProt Q99714) (assay: qHTS Assay for Inhibitors of HADH2 (Hydroxyacyl-Coenzyme A Dehydrogenase, Type II)). Settings: recombinant HADH2, NADH fluorescence, beta-hydroxybutyryl-CoA; activity change, negative = inhibition: at 57.1 µM (top of the series).
In short: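 His-tagged recombinant enzyme from E. coli, 20 nM, preincubated 15 min RT with compound; reaction started with 1 mM NAD+ and 90 uM beta-hydroxybutyryl-CoA in 100 mM Tris-HCl pH 9.0. NADH fluorescence (ex 360/em 450) read over 4 min; last-minus-first difference.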
% is scaled to controls: 0 for no effect and ±100 for the full control effect; potency is read from the fitted curve at half-maximal effect; tags tell the direction and shape of the fitted curve.
Also: nearly all actives have a fitted effect of over 60% in size.

Sequence of UniProt Q99714 (Q99714 whole entry, looked up): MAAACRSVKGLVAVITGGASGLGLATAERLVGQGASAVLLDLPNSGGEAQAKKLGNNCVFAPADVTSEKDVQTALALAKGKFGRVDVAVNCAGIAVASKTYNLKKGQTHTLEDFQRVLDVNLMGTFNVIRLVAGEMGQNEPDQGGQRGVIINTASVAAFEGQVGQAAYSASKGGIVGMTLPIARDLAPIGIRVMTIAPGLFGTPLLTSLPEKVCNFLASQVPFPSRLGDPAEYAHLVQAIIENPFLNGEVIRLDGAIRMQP
Sequence of UniProt Q99714 (Q99714 whole entry, looked up): as above

| Compound | Potency | activity change, negative = inhibition |
| --- | --- | --- |
| CS(=O)(=O)Nc1ccccc1C(=O)NCc1ccco1 | active: 25.1 µM | – |
| NC(=O)c1ncn([C@@H]2O[C@@H](CO)[C@@H](O)[C@H]2O)c1O | – | inactive: 15.1% |
| COCCOC(=O)c1cc(C(=O)c2cc(F)ccc2O)coc1=N | inconclusive: 12.6 µM [inhibitor, partial curve] | – |
| Cc1cnc(-c2nnc(N(C)C(=O)C3CCCO3)s2)cn1 (centres undefined) | active: 20 µM | – |
| COc1cccc(OCc2nnc(SC)n2C)c1 | – | inactive: -4.84% |
| COc1cccc(NC(=O)N2CCN(c3ccc(C(F)(F)F)cn3)CC2)c1 | inconclusive: 5.01 µM [inhibitor, single point] | – |
| COCCn1c(=O)c(-c2cn(C)c3ccccc23)nc2cnc(Oc3ccccc3)nc21 | – | inactive: 2.98% |
| CCOC(=O)c1[nH]c2ccc(OC)cc2c1NC(=O)CN1CCSCC1 | active: 25.1 µM | – |
| CC(C)(C)N1C(=O)Cc2c1nc(N)c1c(N)nc(N3CCCCC3CO)c(C#N)c21 (centres undefined) | inconclusive: 3.16 µM [inhibitor, partial curve] | – |
| COc1cc2c3cc1Oc1c(OC)c(OC)cc4c1[C@@H](Cc1ccc(O)c(c1)Oc1ccc(cc1)C[C@@H]3N(C)CC2)CN(C)C4 | – | inactive: 11.3% [at 11.4 µM] |
| COc1cc(Cl)c(C)cc1NC(=O)CSc1nnc(-c2ccco2)n1CC(C)C | inconclusive: 39.8 µM [inhibitor, single point] | – |
| Clc1ccccc1-c1ccc2ncnc(NC3CCNCC3)c2c1 | – | inactive: 6.83% |
| CCOc1ccc(N2C(=O)c3ccccc3C2O)cc1 (centres undefined) | – | inactive: 7.6% |
| COc1ccc(NC(=O)N2CCCC3(CCN(C(C)=O)CC3)C2)cc1 | – | inactive: 1.8% |
| Cc1ccc(-n2ncc3c(=O)n(CC(=O)NCC4CCCO4)cnc32)cc1 (centres undefined) | – | inactive: 10.5% |
| Cc1nnc2sc(-c3ccc(NC(=O)CSc4ccc(Cl)cc4)cc3)nn12 | inconclusive: 20 µM [inhibitor, partial curve] | – |
| COc1ccc(CNc2oc(C)nc2C#N)cc1 | – | inactive: 1.12% |
| CCOC(=O)c1ccc(NC(=O)CSc2nnc(-c3cccs3)n2CC)cc1 | inconclusive: 0.0063 µM [inhibitor, full curve, poor fit] | – |
| COc1ccc(O)c(C(=O)c2cc(C#N)c(=O)n(CCN3CCOCC3)c2)c1 | – | inactive: 0.535% |
| Cc1cc(-c2nc3ncccc3o2)ccc1NC(=O)CC(C)C | inconclusive: 31.6 µM [inhibitor, single point] | – |
| CC(C)(C)C1=C(C#N)C(c2ccc3c(c2)OCO3)C(C#N)=C(N)O1 (centres undefined) | inconclusive: 15.8 µM [inhibitor, partial curve] | – |
| O=C(O)c1cccc(N2C(=O)CCC2=O)c1 | inconclusive: 31.6 µM [inhibitor, single point] | – |
| CN(C)C(=O)c1ccc(-c2ccc3ncnc(N4CCNCC4)c3c2)cc1 | inconclusive: 31.6 µM [inhibitor, single point] | – |
| C[C@@H](C[N+](C)(C)C)OC(N)=O | inactive | – |
| Cc1c(-c2ccccc2)c(P(=O)(N2CCOCC2)N2CCOCC2)c2ccccn12 | active: 25.1 µM | – |

| Compound | Potency | activity change, negative = inhibition |
| --- | --- | --- |
| CC1=C(C(=O)Nc2cccc(C)n2)C(c2ccc3c(c2)OCO3)C2=C(CC(c3ccco3)CC2=O)N1 (centres undefined) | inconclusive: 31.6 µM [inhibitor, single point] | – |
| COC(=O)c1c(NC(=O)c2ccc(C)o2)sc2c1CCCCC2 | active: 31.6 µM | – |
| CC1Cn2c(nnc2-c2cc3ccccc3cc2O)S1 (centres undefined) | inconclusive: 31.6 µM [inhibitor, single point] | – |
| Cc1cc(C)n(-c2ccc(C(=O)OCC(=O)c3ccc(Br)s3)cc2)n1 | inconclusive: 39.8 µM [inhibitor, single point] | – |
| Cc1ccc(C2(C)NC(=O)N(Cc3c(C)noc3C)C2=O)cc1 (centres undefined) | inconclusive: 31.6 µM [inhibitor, single point] | – |
| NS(=O)(=O)c1ccc(N=Nc2ncccc2O)cc1 | inconclusive: 6.31 µM [inhibitor, single point] | – |
| O=S(=O)(O)c1ccccc1 | – | inactive: -14.4% |
| Cc1cc2c(cc(C(=O)NCc3cccnc3)n2Cc2ccc(Cl)cc2)o1 | inconclusive: 12.6 µM [inhibitor, partial curve] | – |
| COc1cc(C2C(C#N)=C(N)Oc3n[nH]c(C)c32)cc2c1OCO2 (centres undefined) | inconclusive: 20 µM [inhibitor, single point] | – |
| C=CCn1c(SCC(=O)Nc2nccs2)nnc1-c1cc2cccc(OC)c2o1 | inconclusive: 39.8 µM [inhibitor, single point] | – |
| O=C(c1ccncc1)N1CCC[C@@]2(CCN(Cc3ccccc3)C2)C1 | – | inactive: 4.03% |
| OCc1cc(CO)c(O)c(CCc2ccccc2)n1 | inconclusive: 25.1 µM [inhibitor, single point] | – |
| CC(C)NCC(O)Cn1c2c(c3ccccc31)CCc1c-2cnn1-c1ccccc1 (centres undefined) | inconclusive: 31.6 µM [inhibitor, single point] | – |
| CCc1c(C)nc2cc(-c3cc(OC)cc(OC)c3)nn2c1N1CCCC1 | inconclusive: 31.6 µM [inhibitor, single point] | – |
| CCN1C(=O)/C(=C2/C=CC=CN2C)SC1=S | inconclusive: 5.01 µM [inhibitor, partial curve] | – |
| COc1ccc(N2C(=O)CC(Sc3nnc(-c4ccccc4)o3)C2=O)cc1 (centres undefined) | inconclusive: 6.31 µM [inhibitor, single point] | – |
| CCOc1ccc(NC(=O)Nc2cc(C)on2)cc1 | inconclusive: 39.8 µM [inhibitor, single point] | – |
| COc1cccc(-c2nnc(SCC(=O)Nc3ccc(OC)c(OC)c3)n2N)c1 | – | inactive: 7.75% |
| C=CCN1CCc2c(cc(O)c(O)c2Cl)[C@H](c2ccccc2)C1 | active: 1.26 µM | – |
| CC(=O)NCCNc1ncnc2ccc(-c3ccccc3C#N)cc12 | inconclusive: 31.6 µM [inhibitor, single point] | – |
| COc1ccccc1-c1ccc2ncnc(N3CCOCC3)c2c1 | – | inactive: -6.91% |
| Cc1ccc(C(=O)NCCN(C)C)c(C)c1 | – | inactive: -0.255% |
| COC(=O)CS(=O)(=O)c1nnc([C@H](Cc2ccccc2)NC(=O)OC(C)(C)C)o1 | active: 5.01 µM | – |
| CCOc1ccc(-c2csc(NC(=O)C3CCCO3)n2)cc1 (centres undefined) | – | inactive: -0.341% |
